Experimental data published in PubChem BioAssay AID504466 (National Center for Advancing Translational Sciences (NCATS), 2011).
In all, about 330,000 compounds went through this assay and about 4,200 (1.3%) were called active. The shares of active, inactive and inconclusive entries below differ from those in the screen. Calls follow the shape of the dose curve; as a rule, active = well fitted activation curve with a large enough effect; inconclusive = small, poorly fitted or top-dose-only effect; inactive = no such curve, though single readings can be large or run the other way. A potency beside an inconclusive call is a rough fit, not a confirmed value.

Assay: qHTS screen for small molecules that induce genotoxicity in human embryonic kidney (HEK293T) cells expressing luciferase-tagged ELG1; also: nearly all actives have a fitted effect of over 60% in size; as to activity change, positive = activation: % of control where 0% means no effect
Conditions: HEK293T ELG1-luciferase reporter, luminescence, 16 h; series mostly up to 46 µM; activity change, positive = activation: at the top concentration
How it was run: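 ELG1-luciferase HEK293T cells, 2,000/well; compound pinned in; 16 hr, 37 °C, 5% CO2; ONE-Glo, 30 min RT; luminescence on CCD imager.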
Potency is read from the fitted curve at half-maximal effect; tags tell the direction and shape of the fitted curve.

Compound | Potency | activity change, positive = activation
CCOC(=O)c1sc(NC(=O)C2CCC2)cc1C | inconclusive: 18.3 µM [activator, partial curve] | –
O=S(=O)(c1ccccc1F)N1CCN(c2nc3ccccc3s2)CC1 | – | inactive: 6.12%
O=C(c1ccccc1)N(C1=NCCCCS1)c1ccccc1 | – | inactive: -0.92%
C/C(=N\NC(=O)c1ccccc1F)c1ccc(C#N)cc1 | inconclusive: 18.3 µM [activator, partial curve] | –
Cc1ccc(C(=O)Nc2ncc(Cc3ccc(F)cc3)s2)o1 | inconclusive: 2.06 µM [activator, partial curve] | –
CCOc1ccccc1-c1nc(-c2ccc(C)nc2OC)no1 | inconclusive: 10.3 µM [activator, partial curve] | –
COc1ccc(/C=N/NC(=O)c2ccc(O)cc2)cc1CN1CCCc2ccccc21 | inconclusive: 29.1 µM [activator, partial curve, poor fit] | –
CC(=O)Nc1cc2cc(NS(=O)(=O)c3ccc(C)cc3)ccc2oc1=O | inconclusive: 20.6 µM [activator, partial curve, poor fit] | –
CCN(CC)CCNC(=O)CS(=O)Cc1nc(-c2ccc(Cl)cc2)oc1C (centres undefined) | – | inactive: 0.17%
C#CCn1c(C)cc(C)c(S(=O)(=O)c2ccccc2)c1=O | inconclusive: 20.6 µM [activator, single point] | –
COc1ccc2oc(=O)c(C(=O)NCC3CCCO3)cc2c1 (centres undefined) | inconclusive: 18.4 µM [activator, single point] | –
CCCCc1c(C)c2ccc(OCC(C)=O)cc2oc1=O | active: 5.17 µM | –
FC(F)(F)c1ccccc1-n1c(-c2cnccn2)n[nH]c1=S | inconclusive: 23.1 µM [activator, partial curve, poor fit] | –
Cc1nc(NC(=O)CSc2nccn2C)sc1C(=O)N(C)C | inconclusive: 23.1 µM [activator, partial curve, poor fit] | –
Cc1ccc(C(=O)Nc2ccc3c(c2)CCC3)cc1 | active: 0.184 µM | –
COc1ccc(S(=O)(=O)N2CCC(c3nc4ccccc4[nH]3)CC2)cc1 | – | inactive: 0%
CC12CCC(=O)N1C(C(=O)Nc1nc(-c3ccccc3Cl)cs1)CS2 (centres undefined) | inconclusive: 25.9 µM [activator, single point] | –
CC(C)COc1ccc(C(=O)Nc2ccc(NC(=O)c3ccco3)c(Cl)c2)cc1 | inconclusive: 16.4 µM [activator, partial curve] | –
COc1ccc(/C=C2\SC(=O)N(CC(=O)N(C)C3CCS(=O)(=O)C3)C2=O)cc1 (centres undefined) | – | inactive: 6.93%
COc1ccc(/C=C/c2nnc(NC(=O)CSc3ccc(Cl)cc3)s2)cc1 | inconclusive: 9.2 µM [activator, partial curve, poor fit] | –
COc1ccc(-c2ccc3ccccc3n2)cc1 | active: 0.92 µM | –
COc1ccccc1NC(=O)Nc1nnc(Cc2ccc(F)cc2)s1 | inconclusive: 16.4 µM [activator, partial curve, poor fit] | –
Cc1ccc(NC(=O)c2cc(-c3ccco3)on2)cc1 | inconclusive: 23.1 µM [activator, single point] | –
CCS(=O)(=O)N1Cc2ccccc2CC1C(=O)Nc1nnc(SCc2c(Cl)cccc2Cl)s1 (centres undefined) | – | inactive: -1.24%
C/C(=N/OC(=O)c1ccc(F)cc1)c1ccc(C)cc1 | – | inactive: 1.06%

Compound | Potency | activity change, positive = activation
Cc1cc(C)nc(SCc2cc(=O)c(OC(=O)c3ccc(Cl)c([N+](=O)[O-])c3)co2)n1 | inconclusive: 23.1 µM [activator, partial curve, poor fit] | –
O=C(NCc1cccnc1)c1ccc(NC(=O)c2ccco2)cc1 | inconclusive: 25.9 µM [activator, partial curve, poor fit] | –
COC(=O)C1C(=O)c2c([nH]c(C(=O)OC3CCCC3C)c2C)CC1C (centres undefined) | active: 4.61 µM | –
C=CCn1c(SCC(=O)Nc2ccc(-c3nc4ccc(C)cc4s3)cc2)nnc1-c1ccncc1 | inconclusive: 7.31 µM [activator, partial curve, poor fit] | –
COc1cc(C)ccc1OCc1cc(C(=O)NCCN2CCOCC2)no1 | inconclusive: 8.2 µM [activator, partial curve] | –
O=C(NCCc1ccccc1)c1ccccc1Cl | inconclusive: 0.73 µM [activator, full curve] | –
C=CCn1c(SCC(=O)O)nnc1-c1ccc(C(C)(C)C)cc1 | – | inactive: -1.58%
CCc1nnc(NC(=O)/C=C/c2cccs2)s1 | active: 23.1 µM | –
Cc1c(C(=O)Nc2ccncc2)sc2nc(-c3ccccc3)cn12 | – | inactive: 0.196%
CCOc1ccc2oc(C(=O)NNC(=O)c3ccccc3O)c(C)c2c1 | inconclusive: 5.17 µM [activator, single point] | –
COc1ccc(C(=O)N2CCN(CCc3ccccc3)CC2)cc1[N+](=O)[O-] | – | inactive: -5.43%
COC(=O)c1ccc([C@@H]2C[C@H]3CN(Cc4cccnc4)C(=O)[C@]34CCCN24)cc1 | – | inactive: 7.18%
O=C(c1cc(-c2ccco2)on1)N1CCOCC1 | inconclusive: 23.1 µM [activator, partial curve, poor fit] | –
CCc1ccc(CNc2ccc3c(c2)ncn3CC)cc1 | inconclusive: 5.17 µM [activator, partial curve, poor fit] | –
Cc1nc2cc(C(=O)O)ccc2s1 | inconclusive: 7.31 µM [activator, partial curve] | –
CC(=O)c1c(C)[nH]c(C(=O)OCCOc2ccccc2)c1C | inconclusive: 0.517 µM [activator, full curve] | –
Fc1ccc(-c2nnn(Cc3nc4ccccc4s3)n2)cc1 | inconclusive: 20.6 µM [activator, partial curve, poor fit] | –
COc1ccc(-n2nc(C(=O)NCC(=O)N(C)Cc3ccccc3)c3ccccc3c2=O)cc1 | – | inactive: -19.7%
Cc1cc(C(F)(F)F)c(C#N)c(SCC(=O)Nc2nc3ccccc3s2)n1 | active: 0.231 µM | –
O=C(NC1CCCCC1)c1n[nH]c2c1CCCCC2 | inconclusive: 0.206 µM [activator, partial curve, poor fit] | –
O=C(CSc1ncn[nH]1)Nc1ccc(OCc2ccccc2)cc1 | inconclusive: 20.6 µM [activator, partial curve, poor fit] | –
CN(C)c1ccc(NC(=O)Nc2csc3ccccc23)cc1 | inconclusive: 23.1 µM [activator, partial curve, poor fit] | –
O=C(COc1cccc(NC(=O)c2cccs2)c1)c1ccc(F)cc1 | – | inactive: -5.5%
COc1ccc(-c2cc(C(F)(F)F)c3c(N)c(C(=O)NCCSC)sc3n2)cc1 | inconclusive: 29.1 µM [activator, single point] | –
O=C(N/N=C\c1ccc(F)cc1)c1csnn1 | inconclusive: 23.1 µM [activator, partial curve, poor fit] | –

Compound | Potency | activity change, positive = activation
Cc1cc(C)nc(SCC(=O)N/N=C/c2cc(C)n(-c3ccccc3C)c2C)n1 | – | inactive: -1.18%
O=C1c2ccccc2C(Nc2ccc3c(c2)OCCO3)N1Cc1ccc2c(c1)OCO2 (centres undefined) | inconclusive: 10.3 µM [activator, partial curve] | –
COc1ccc(-c2nc3ccccc3s2)cc1O | active: 0.651 µM | –
Cc1ccc(NC(=S)NNC(=O)Nc2ccccc2)cc1 | inconclusive: 5.8 µM [activator, partial curve] | –
Clc1ccc(-c2csc(Nc3cccnc3)n2)cc1 | – | inactive: 5.91%
Cc1ccc(/C=C/C(=O)Nc2ccccc2C(N)=O)cc1 | inconclusive: 8.2 µM [activator, partial curve] | –
CCCS(=O)(=O)N1CCC(C(=O)NC2CCC(C)CC2)CC1 (centres undefined) | inconclusive: 16.4 µM [activator, partial curve, poor fit] | –
COc1cccc(C(=O)COC(=O)CCCC(=O)NC2CCCCC2)c1 | – | inactive: -0.796%
Cc1ccc(-n2ncc3c(NCc4ccco4)ncnc32)cc1C | inconclusive: 8.2 µM [activator, partial curve, poor fit] | –
COc1cccc(NC(=O)c2ccc(NC(C)=O)cc2)c1 | inconclusive: 20.6 µM [activator, single point] | –
O=C1OCCN1C(=O)[C@H]1[C@H](c2ccc([N+](=O)[O-])cc2)C(c2ccc(F)cc2)=NN1c1ccc(Br)cc1 | – | inactive: -2.97%
O=C(Nc1nc(-c2ccccc2)cs1)c1ccc2c(=O)n3c(nc2c1)CCCCC3 | – | inactive: -19.2%
CCC(CC)COC(=O)C1=C(C)NC(=O)NC1c1cccc([N+](=O)[O-])c1 (centres undefined) | – | inactive: -8.09%
CS(=O)(=O)Nc1ccccc1C(=O)NCC1(N2CCCCC2)CCCCC1 | – | inactive: 2.89%
Cc1nc2cc(NC(=O)Nc3cccc4ccccc34)ccc2n1C | inconclusive: 4.61 µM [activator, partial curve] | –
CCCN1CCC(NC(=O)c2cccc(Oc3ccccc3)c2)CC1 | – | inactive: 0.906%
CCCCN(CC)CCCNC(=O)c1cn(-c2ccc(OC)cc2)c(=O)c2ccccc12 | – | inactive: 0.166%
Brc1ccc(Cn2c(-c3cncs3)nc3ccccc32)cc1 | inconclusive: 29.1 µM [activator, single point] | –
CCOc1cccc(-c2c(C(=O)N/N=C/c3ccsc3)nnn2-c2nonc2N)c1 | – | inactive: 2.24%
CCn1cc(Br)c(C(=O)Nc2cccc(SC)c2)n1 | inconclusive: 13 µM [activator, partial curve] | –
COc1ccccc1CNS(=O)(=O)c1c(C(=O)N2CCCCC2)c(C)n(C)c1C | – | inactive: -0.389% [at 9.26 µM]
O=C(Nc1ccc(CSc2ccccc2)cc1)c1ccco1 | active: 7.3 µM | –
CN(C(=O)CN1C(=O)c2ccccc2S1(=O)=O)C1CCCCC1 | inconclusive: 18.3 µM [activator, partial curve] | –
Cn1cnnc1SCC(=O)c1c[nH]c2ccccc12 | inconclusive: 23.1 µM [activator, partial curve, poor fit] | –
